# Laboratory results as given in the supplement of paper PMC11417369.
# ± gives the standard deviation of the averaged measurements. The list shows a part of the results.
# System: PfAP2-I AP2 domain 3 (GST-tagged)
# Test: gcPBM binding intensity (ln(normalized median fluorescence intensity)); higher = stronger DNA binding
# In short: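 Using an Agilent 4 × 180k array, primer-extended double-stranded 36-bp intergenic genomic probes and negative controls were exposed for 1 h to GST-fused P. falciparum DNA-binding domains expressed in E. coli. Binding was carried out in 1× PBS with 1% milk, 0.2 mg/ml BSA, 0.5% salmon testes DNA and 0.03% Triton X-100, and protein was detected with Alexa488 anti-GST antibody and a 488 nm scan. Binding intensity is the highest Masliner-normalised natural-log median intensity across replicate spots of either probe orientation.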
row,Sequence,gcPBM binding intensity (ln)
1,TTTCTATTTATTTCAAGTACTAAAAATATATATAAC [XGTACX_site8203],7.83 ± 0.29
2,TTTTTTTACTTAATAGTTCAACATATATCTCAATGT [CACACA_negctrl_site620],7.55 ± 0.55
3,TAAATACTTTTATGTACACACATATAGATATATATT [CACACA_site5416],8 ± 0.16
4,TTGAACCTGATAAATACACACAATATATATTTTTTT [CACACA_site2173],7.61 ± 0.59
5,GTGATAAATATTATATGTACATATAATATTTATGTC [XGTACX_site8023],8.07 ± 0.28
6,TCAAAAACGAGACATGCATGCAATTCATTTTGATTC [TGCATGCA_site212],7.53 ± 1.1
7,CCATTCTTACTTTATTGTACTTGAAAATTTTTTTTA [XGTACX_site6160],8.12 ± 0.38
8,TATATAATAAGATATGCATGCACATGTAAAATGAAT [TGCATGCA_site499],9.02 ± 1.1
9,TTAAAATAGATAAATAGTACTCTTTCCATTATGTAA [XGTACX_site6299],7.41 ± 0.59
10,ATAATGTTTTATAATACACACATTAGATATATAAAT [CACACA_site7834],7.86 ± 0.46
11,TCATATAACACTTGATGTACAAGAATCCAAGTTGCA [XGTACX_site8758],7.78 ± 0.55
12,ATATGTATAATATATATATATATATATATATATATA [CACACA_negctrl_site623],9.09 ± 0.57
13,ATATATATTTAAACTACACACGCATATCTTAGAAAT [CACACA_site8348],7.86 ± 0.49
14,ACCCACTTTTGAGGTGTGCACAATAAATTGGACATT,10.52 ± 0.021
15,AGGAAAAAAAAAATGACACACATATTTGAATTAAAA [CACACA_site1352],7.54 ± 0.64
16,TAAGAGATATTTTATTAAATGTTTTATGAATCATGT [TGCATGCA_negctrl_site264],7.17 ± 0.6
17,GTACATACATAAAACACACACATATAGATTTATATA [CACACA_site6945],7.73 ± 0.47
18,ACTCATAAAAATAGATGTACTTTAATAATTTGATTT [XGTACX_site8763],7.68 ± 0.2
19,AAAAAAAAAAGACACACACACATATAAATATAAATA [CACACA_site6899],7.67 ± 0.42
20,TCAAACGGTTAAATATGTACATATATATATATATAT [XGTACX_site2339],9.07 ± 0.69
21,TTTCAAACAAAAAGACGTACACTGAAGTTATCCGTC [XGTACX_site8824],7.59 ± 0.2
22,TTGTATTCATAACAACGTACATATTTTGTAACTAAA [XGTACX_site4029],7.68 ± 0.49
23,AAGGAAATATAATATACACACATAAGTGTACTTCTA [CACACA_site6079],7.66 ± 0.44

row,Sequence,gcPBM binding intensity (ln)
1,CAATCAAATAGACACACACACACCTAAACATAAAAG [CACACA_site7322],7.96 ± 0.46
2,ATATTAAAATGAAAATATAAAAAAAAAAAAAAAAAA [CACACA_negctrl_site1559],8.09 ± 0.38
3,TATATATATAAACACACACACACCAAAGCGTAGCGC [CACACA_site7903],8.99 ± 0.41
4,TATTAATAAAAGCATTGTACAGTAATAAATAAATAA [XGTACX_site2924],7.94 ± 0.73
5,AGCCATTAATTCTCTACACACCTTTATGTTATTTAG [CACACA_site3635],8.06 ± 0.74
6,ATTCATAATATTATAACACACGCTTATTACATAAAG [CACACA_site980],7.99 ± 0.57
7,CGCATGTATTTTGTGTGTACTAATTATAATCAACTT [XGTACX_site4709],7.99 ± 0.47
8,TTTTACATATACATGTGTACATAACAAAGAATGTTT [XGTACX_site2406],7.88 ± 0.57
9,AGTGTATTAATTCTCACACACTAAGAAAAAAAAAAA [CACACA_site6007],8.39 ± 0.16
10,TTTTTTAATAAATGGTGTACATATTTTTTTTATACT [XGTACX_site8584],8.05 ± 0.27
11,TAATATTGTATTTATGTACACACATTTTTGGAATAT [CACACA_site8371],7.81 ± 0.4
12,TTTAATATTTTTTTTTGTACTTATTTGTAGAAATAT [XGTACX_site3046],7.7 ± 0.35
13,CTATTTTTTGTATAAACATGCATATAGTAGATATGG [TGCATGCA_site670],7.92 ± 0.39
14,AGGCTCATTTTTTTTAGTACATCAAAAAAAAAAAAA [TGCATGCA_negctrl_site591],8.24 ± 0.54
15,TGTATGTTTATTTGATGTACGGTCATACATATAAAT [XGTACX_site5176],7.87 ± 0.48
16,AAATTCATATGAATTTGTACGGACATAAATATCTTC [XGTACX_site1838],7.57 ± 0.67
17,ATGTCTACAGTTTTTGCACACATATAAATAAAAAAA [CACACA_site3600],9.65 ± 0.25
18,ATTTTTTTTTTTTTTTTTTTTGAGAAGAACTTTTTC [CACACA_negctrl_site1019],7.64 ± 0.35
19,AAACATCATAAATATACACACATATTTATATTTATA [CACACA_site6437],7.66 ± 0.47
20,CCATAACTCATATGCACACATAAATATTACATATAT [CACACA_site3821],8.87 ± 0.13
21,TTTTAAAAAGAAAAAAATAACATACATATATATATA [CACACA_negctrl_site240],9.155 ± 0.049
22,TAACACATATATTGTTGTACATTCAAACTGAAAAAT [XGTACX_site5565],7.82 ± 0.34
23,TTTTTTTTATTAAAAAGTACTAAACAAATTATATAT [XGTACX_site121],7.82 ± 0.31

row,Sequence,gcPBM binding intensity (ln)
1,AGATGGAGAAAGTTATGTACACATATATAAATATGT [XGTACX_site6150],7.87 ± 0.26
2,CCCATGTAATGAACATGTACATAATAATTTATAAAT [XGTACX_site8687],7.88 ± 0.61
3,ATATATATATATATGTGTACATATGTATATATATCT [XGTACX_site2930],9.32 ± 0.48
4,TATATACATATGTGATGTACATTTTTTGTAATATAA [XGTACX_site6985],7.71 ± 0.41
5,ATTTAATTTATTATGTGTACTTATTTAATTAAATTA [XGTACX_site3171],7.89 ± 0.15
6,ATATTTTTATTTAAATCACATCATTTTGTTTATTTG [CACACA_negctrl_site1056],7.8 ± 0.69
7,CATATAATTATTGAAAGTACATACAAATAAAAAGAT [XGTACX_site6535],8.12 ± 0.62
8,TTATATATTTATAAATGTACATATAATTTTTTTATA [XGTACX_site4696],7.63 ± 0.42
9,CTGATATATAGATGTAGTACATAAAAATGACGAATT [XGTACX_site5612],8.03 ± 0.57
10,TAAATATATTTATATTGTACATTTATGTTGATACCA [XGTACX_site228],7.54 ± 0.45
11,ATATATATATGTATATGTACATATATATACACATAT [XGTACX_site140],8.93 ± 0.028
12,TTTTGTGAATTTTAGATTTTTTAATACAAGAATATT [CACACA_negctrl_site606],7.53 ± 0.47
13,TATATATATAATATATGTACTGATATGCTATTTACT [XGTACX_site841],8.575 ± 0.064
14,ATATTTACCACTGTATGTACATATATAAAATATATC [XGTACX_site6373],8.31 ± 0.33
15,AAAAAAAAAGGTACTACACACTATTATCAATAGAAA [CACACA_site91],7.67 ± 0.24
16,TACTTATTATGAAACACACACCAAAACTACAGAATA [CACACA_site6265],8 ± 0.52
17,CAAAATAAAAAATTCACACACATATAAATATAAATA [CACACA_site7065],7.51 ± 0.49
18,ATATATATATAGTGCACACATATAAAATATATATAA [CACACA_site2745],11.29 ± 0.078
19,TTTACAGATACTTGCTCACACATATGTATAAAAATA [CACACA_site4928],8.02 ± 0.32
20,TATAATATATATAGGAGTACGTATGTATATTTATAA [XGTACX_site3521],7.89 ± 0.58
21,ATATTTTATAATTTTACACACCATATAAAATAATTC [CACACA_site2797],8.13 ± 0.41
22,ACATGAAACTATAAACGTACATACATACATATATAT [XGTACX_site5011],8.09 ± 0.6
23,AATAGTTAAATGTACACACTAACTACATGGAATATA [CACACA_site3262],7.89 ± 0.3

row,Sequence,gcPBM binding intensity (ln)
1,TATATATAAAACATATGTACATATATATATATATAT [XGTACX_site419],9.49 ± 1
2,AAGTAAAAAAATAGCACACACACAAAAACACCCACA [CACACA_site1291],8.81 ± 0.16
3,AGAGGCCAGCTTTCTCTTCTAAACATGTACAAAAAT [GTGCAC_negctrl_site98],7.63 ± 0.64
4,TGAGCACAAATACAGGTGCATATAAAATATATGACG,10.3 ± 0.3
5,AAAAAAATAAAATGTTCACACATTTCACAATTACTT [CACACA_site4859],7.4 ± 0.68
6,TTTTTAACATTTAAATGTACATGTTACAATTTAAAG [XGTACX_site8789],7.65 ± 0.47
7,TACTAAAACCCATACACACACATATATATAGTACCA [CACACA_site3184],7.83 ± 0.39
8,AGAGACTTAGAAAACACACATACATAAGATAATTTA [CACACA_site2377],7.67 ± 0.65
9,TTTTTATTTTTATACATATAATATATTATGATTAAA [CACACA_negctrl_site214],7.87 ± 0.42
10,ACAGCATAATCATGCTGTACATTATTTTCTTAAGTA [XGTACX_site8456],7.4 ± 0.67
11,ACTTACACATTTATTACACACATAAAGGAAAATTTT [CACACA_site1356],8.44 ± 0.46
12,TTAAAAAATAACAAGGTGCAAATAGGTTTATAAAAT,10.84 ± 0.064
13,ATATTTAAATGGATCACACATATATATATATATATA [CACACA_site5255],9.41 ± 0.66
14,CGCGAAGTAGCATTCACACACAGCAAAATATATATA [CACACA_site3495],7.95 ± 0.78
15,CACTAATAGTGGATTACACACATATATATGTATATA [CACACA_site2531],8.31 ± 0.43
16,ATATAATGACAAGTATAAGTATCACAAAGAAATAAA [CACACA_negctrl_site1403],7.78 ± 0.54
17,CCACTTTTTGAAGACACACACAAAAAAAAAAAAAAA [CACACA_site2551],8.08 ± 0.52
18,TTTTGAAGAAAATTCTTTTTTTTTTTTTTTTGTAAA [CACACA_negctrl_site102],7.02 ± 0.62
19,ATAACAATTATTTGTCGACACACGTATATGTTATTT [CACACA_site1766],7.87 ± 0.58
20,CAAGCTTTTTCCTTTACACACATTAATTATATATAT [CACACA_site1423],8.14 ± 0.56
